# Data from publication PMC4336329 (PLoS ONE, 2015).
# The campaign covered roughly 310,000 compounds. About 14,000 (4.5%) showed an effect of 50% or more. Effects have a minus sign here. The list shows a part of the results.
# Target: human ether-à-go-go-related gene (hERG) potassium channel (human, UniProt Q12809)
# Test: primary screen, population patch clamp on CHO cells stably expressing hERG
# 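Also: peak tail current of the secondary pulse compared with the same well before compound.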
# Chain of human ether-à-go-go-related gene (hERG) potassium channel (Q12809 whole entry, looked up): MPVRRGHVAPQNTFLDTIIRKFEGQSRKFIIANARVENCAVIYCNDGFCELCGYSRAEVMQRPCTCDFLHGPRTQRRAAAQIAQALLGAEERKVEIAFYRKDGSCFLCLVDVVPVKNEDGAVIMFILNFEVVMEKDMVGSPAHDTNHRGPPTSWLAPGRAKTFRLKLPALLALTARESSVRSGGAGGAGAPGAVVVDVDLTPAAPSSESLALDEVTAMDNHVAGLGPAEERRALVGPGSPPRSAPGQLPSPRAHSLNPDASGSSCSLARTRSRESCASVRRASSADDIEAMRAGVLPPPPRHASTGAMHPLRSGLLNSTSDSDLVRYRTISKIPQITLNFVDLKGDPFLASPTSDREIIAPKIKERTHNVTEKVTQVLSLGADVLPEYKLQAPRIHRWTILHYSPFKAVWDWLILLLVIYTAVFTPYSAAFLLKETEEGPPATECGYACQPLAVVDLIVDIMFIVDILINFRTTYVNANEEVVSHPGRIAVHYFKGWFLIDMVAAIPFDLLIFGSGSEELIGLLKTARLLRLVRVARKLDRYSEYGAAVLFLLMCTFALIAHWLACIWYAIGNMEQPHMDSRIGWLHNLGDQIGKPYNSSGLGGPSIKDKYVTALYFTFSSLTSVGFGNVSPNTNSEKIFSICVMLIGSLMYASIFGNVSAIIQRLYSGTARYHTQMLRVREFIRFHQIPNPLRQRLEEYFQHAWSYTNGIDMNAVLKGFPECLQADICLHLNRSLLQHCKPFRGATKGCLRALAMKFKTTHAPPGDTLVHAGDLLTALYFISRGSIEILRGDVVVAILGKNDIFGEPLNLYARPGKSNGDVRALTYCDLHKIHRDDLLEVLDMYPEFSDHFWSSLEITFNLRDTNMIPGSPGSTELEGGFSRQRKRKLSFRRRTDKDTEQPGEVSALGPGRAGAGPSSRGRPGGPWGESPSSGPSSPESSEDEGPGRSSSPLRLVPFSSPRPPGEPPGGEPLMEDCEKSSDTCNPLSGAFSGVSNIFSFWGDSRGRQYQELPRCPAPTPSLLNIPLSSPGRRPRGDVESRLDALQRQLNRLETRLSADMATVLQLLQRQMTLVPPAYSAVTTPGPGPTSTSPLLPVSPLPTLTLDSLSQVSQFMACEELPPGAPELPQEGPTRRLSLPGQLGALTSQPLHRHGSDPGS
row,SMILES,"hERG current change (%, negative = inhibition) at 10uM [%]"
1,CN(C)S(=O)(=O)c1cc(C(=O)N2CCC(C(=O)O)(c3ccccc3)CC2)ccc1Cl,24.7
2,Oc1c(/C=N/c2ccccn2)sc2ccccc12,-6.5
3,COc1ccc(C(=O)NC(C)C2CC3CCC2C3)c(OC)c1 (stereo not shown),-41.6
4,COc1ccc(Br)cc1CN1CCN(C(=O)Cc2ccccc2)CC1.Cl,-7.37
5,C=CCn1c(Cc2ccc(OC(C)C)c(Cl)c2)nnc1SCC(N)=O,-3.01
6,CC(=O)NCc1cccc(CNC(C)=O)n1,1.53
7,S=c1[nH]nc(-c2ccn[nH]2)n1-c1ccccc1Cl,23
8,O=C(C1CCC(C(=O)N2CCc3ccccc32)CC1)N1CCc2ccccc21 (stereo not shown),-0.582
9,CC(NC(=O)[C@@H](C)NC(=O)[C@@H]1Cc2ccccc2CN1C(=O)OC(C)(C)C)c1ccccc1 (stereo partly shown),9.87
10,O=C(C1CCC(=O)N(C2CC2)C1)N1CCC(Oc2cccc(F)c2)CC1 (stereo not shown),-13
11,CCOC(=O)N1CCN(C(=O)C(=O)N/N=C/c2ccc(OC)cc2OC)CC1,3.05
12,O=C(O)c1ccc(Br)c(S(=O)(=O)N2CCCC2)c1,9.91
13,CN(C(=O)COc1ccccc1)c1nc(-c2ccc(F)cc2)cs1,15.1
14,O=C(NCc1ccccc1Cl)C1CC(=O)N(Cc2ccccc2)C1 (stereo not shown),12.1
15,O=C(c1ccccc1)N1CCCCC(Cl)C1=O (stereo not shown),9.67
16,CCC(C(=O)Nc1ccncc1)c1ccccc1 (stereo not shown),0.0329
17,Cc1cccc(CSc2nnc(NC(=O)CSc3nnc(C)s3)s2)c1,13.7
18,O=S(=O)(c1ccc(F)cc1)N1CN(Cc2ccco2)c2nc3ccccc3nc21,-11.4
19,CCc1cc(C(=O)OC)c(NC(=O)CC2NCCNC2=O)s1 (stereo not shown),7.37
20,NS(=O)(=O)c1ccc(Cl)c(C(=O)Nc2ccccc2[N+](=O)[O-])c1,3.17
21,O=C(Nc1cccnc1)c1cc(-c2cccnc2)nc2ccc(Br)cc12,-28.6
22,CSCCC(N=C1NS(=O)(=O)c2ccccc21)C(=O)NCCc1ccccc1 (stereo not shown),13.2

row,SMILES,"hERG current change (%, negative = inhibition) at 10uM [%]"
1,CCC(C)[C@H](NC(=O)N1CCn2c1nc1ccccc12)C(=O)NCCc1ccccc1 (stereo partly shown),-2.42
2,CCOC(=O)c1sc(N/N=C/c2cc(Br)c(O)c(OC)c2)nc1C,4.89
3,CNC(=O)c1ccc(-c2ccc(OC)cc2)s1,17.1
4,CCc1nn(-c2ccccc2)c(=S)c2ccccc12,-0.667
5,Cc1nn(-c2ccccc2)c(Cl)c1/C=C1\SC(=S)N(CCCCCC(=O)O)C1=O,-23.5
6,FC(F)(F)c1ccc2c3n(nc2c1)CCN=C3c1ccc(Cl)cc1,-7.82
7,CC1CC(C)CN(c2ccc(C(=O)OCC(=O)NC3CCCc4ccccc43)cc2[N+](=O)[O-])C1 (stereo not shown),22.3
8,COc1ccc(/C=C/C(=O)OCC(=O)c2c(N)n(C)c(=O)n(C)c2=O)cc1,5.38
9,NS(=O)(=O)c1ccc(NC(=O)Nc2cccc(Cl)c2)cc1,17.5
10,CC1Oc2ccccc2N(CC(=O)NCC2CCCO2)C1=O (stereo not shown),-15.3
11,O=C(Nc1cccc(OC(=O)N2CCCCC2)c1)N1CCOCC1,18.9
12,CCn1c(SC)nnc1C1CCN(CC(=O)Nc2ccccc2N2CCOCC2)CC1,-31
13,O=C(NCc1ccccc1)C(c1ccccn1)N(C(=O)c1csnn1)c1ccccc1F (stereo not shown),-5.45
14,COc1ccc([N+](=O)[O-])cc1NC(=O)CCc1ccccc1,4.14
15,COC(=O)CCC(=O)NC(=S)Nc1ccc(S(=O)(=O)N2CCCC2)cc1,18.7
16,CCOc1ccc(C(=O)CCC(=O)NCC(=O)Nc2c(C)cccc2C)cc1,-7.13
17,CCOc1ccc(C2C(C(=O)c3ccco3)=C(O)C(=O)N2CCCn2ccnc2)cc1OC (stereo not shown),-5.03
18,COc1ccc(NC(=O)CSc2ccccn2)c([N+](=O)[O-])c1,1.83
19,S=c1[nH]c2ccccc2n1Cc1ccccc1,19.9
20,O=C1CCC([N+](=O)[O-])C(c2cccc(Cl)c2Cl)N1 (stereo not shown),-6.81
21,CCOC(=O)C1(Cc2ccc(OC)cc2)CCN(C(=O)c2cc3ccccc3[nH]2)CC1,11.5
22,CC(OC(=O)CN1C(=O)C2CCCCC2C1=O)C(=O)Nc1ncc(Cl)cc1Cl (stereo not shown),-2.76

row,SMILES,"hERG current change (%, negative = inhibition) at 10uM [%]"
1,CC(C)C(=O)Nc1nnc(SCC(=O)N2C(C)CCCC2C)s1 (stereo not shown),3.31
2,O=C(Cn1nnc(-c2ccccc2)n1)Nc1ccccc1N1CCOCC1,-26
3,NC(=O)C(=O)N/N=C1\CCc2ccccc21,19.3
4,COc1cccc(CNC(=O)COC(=O)C2CC3CCCC(C2)C3=O)c1 (stereo not shown),18
5,Cn1nc(C(=O)NCC(=O)Nc2ccc(F)c(F)c2F)c2ccccc2c1=O,8.87
6,CN(C)c1ccc(N2C(=NC(=O)CC3CCCCC3)SC3CS(=O)(=O)CC32)cc1 (stereo not shown),6.21
7,Clc1ccc(CNc2ccccc2NCc2ccc(Cl)nc2)cn1,-12.1
8,Cc1cc(C)nc(SCc2ccc(F)cc2)n1,-4.43
9,CCn1c(SCC(=O)Nc2cc(C)on2)nc2c1c(=O)n(C)c(=O)n2C,3.53
10,CCCNS(=O)(=O)c1ccc(OCC(=O)N2CCOCC2)cc1,-4.39
11,CN(Cc1ccccc1)C(=O)c1[nH]cnc1C(=O)N[C@@H](CCCCNC(=O)OC(C)(C)C)C(=O)OC(C)(C)C,-17.1
12,Nc1c(-c2ccccn2)cnn1-c1nc(-c2ccc(F)cc2)cs1,10.6
13,Cc1csc(N(C)C(=O)CSc2nnc(COc3cccc4ccccc34)o2)n1,4.34
14,O=C(CS(=O)(=O)c1c[nH]c2ccccc12)Nc1ccc(F)cc1,-21.8
15,Cc1cc(CC(=O)[O-])n(C)c1C(=O)c1ccc(Cl)cc1.[Na+],9.57
16,COc1ccc(OC)c(NC(=O)C2CCN(S(=O)(=O)c3c(C)noc3C)CC2)c1,-19.2
17,CC(=O)Nc1cccc(NC(=O)c2cc(-c3ccccn3)nc3ccc(Cl)cc23)c1,-11
18,O=C(c1ccco1)N1CCN(c2nc3ccccc3c(=O)n2-c2ccccc2)CC1,-54.9
19,COC(=O)c1ccc(OC(=O)C2CC(=O)N(c3cccc(C)c3)C2)cc1 (stereo not shown),4.38
20,Cc1ccc(NC(=O)NC(=S)NC(=O)c2ccccc2)cc1,-21.8
21,COc1ccc(C(=O)NCCC(=O)N2CCC3(CC2)NCCc2[nH]cnc23)cc1,26.5
22,CC(=O)c1ccc(Cc2cnc(N)s2)cc1,-3.75

row,SMILES,"hERG current change (%, negative = inhibition) at 10uM [%]"
1,COc1ccccc1CNC(=O)COC(=O)Cc1cccs1,22
2,Cc1cc(C(=O)OCC(=O)N(CC(C)C)c2c(N)n(Cc3ccccc3)c(=O)[nH]c2=O)c(C)o1,-0.0284
3,CN(C)/C=C/c1c([N+](=O)[O-])c2ccc(O)cc2n1-c1ccccc1,15.6
4,Cc1c(O)ccc(C(=O)CN2CCN(Cc3ccc4c(c3)OCO4)CC2)c1O,-46.6
5,O=C(CN1C(=O)COc2ccc(Cl)cc21)N1CCOCC1,23.6
6,COC(=O)C1=C(C(=O)OC)SC(=C2C(=S)C(C)(C)N(C(=O)C3CC3)c3ccccc32)S1,-3.07
7,O=C(c1ccc2c3c(cccc13)CC2)N1CCN(c2ncccn2)CC1,-7.42
8,COc1ccccc1NC(=O)CCc1nnc2ccc(NCc3ccco3)nn12,-6.9
9,CN(Cc1cccs1)C(=O)c1cc(S(=O)(=O)N2CCOCC2)ccc1F,0.54
10,Br.CC(=O)c1cccc(N=c2scc(-c3ccc(S(=O)(=O)N4CCOCC4)cc3)n2CCO)c1,-41
11,CCc1ccc(OCC(=O)OC2CCS(=O)(=O)C2)cc1 (stereo not shown),1.48
12,Cc1ccc(-n2nc3ccc(NC(=O)C(C)C)cc3n2)cc1,18.9
13,CSC(=NNC(=O)c1ccc(O)cc1)SC,11.7
14,CSc1nnc(C(C)(C)C)c(=O)n1/N=C/c1ccccc1,-9.16
15,Oc1ccccc1N1CCN(c2ncnc3scc(-c4ccccc4)c23)CC1,4.04
16,CC(=O)N(C1=C(N)C(=O)c2ccccc2C1=O)C(C)C,18.4
17,O=C(Nc1ccc(Cl)cc1Cl)c1ccc(Br)o1,10.7
18,CCC(=O)Nc1ccccc1C(=O)OCC(=O)c1cccc2ccccc12,-8.15
19,Cn1c(=O)oc2cc(S(=O)(=O)NCCN3CCCCCC3)ccc21,9.75
20,CC(C)(C)C(CN1CCCC1)OC(=O)c1ccccc1.Cl (stereo not shown),-0.126
21,COCC1CCN(C(=O)c2cc(COc3ccc(C)c(C)c3)on2)C1 (stereo not shown),-16
22,COc1ccc(-c2ocnc2C(=O)N2CCN(C(=O)C(c3ccccc3)c3ccccc3)CC2)cc1,-10.3
